# In the antibiotic and cytotoxicity screens of Wong et al. (2023):
# This is one part of the list.
# System: HSkMC (human skeletal muscle cells)
# Test: cytotoxicity call (relative viability < 0.9)
# Conditions: 10 µM
row,Structure (SMILES),cytotoxicity call
1,CCCCCCCCc1ccc(-c2ccc(C(=O)O)cc2)cc1,inactive
2,O=C(C[C@@H]1CC[C@@H]2[C@H](COC[C@H](O)CN2C(=O)c2ccc3c(c2)OCO3)O1)NC1Cc2ccccc2C1,inactive
3,COc1ccc(CN(C)C[C@@H]2OCCCC[C@@H](C)Oc3ccc(NC(=O)Nc4ccc(OC)cc4)cc3C(=O)N([C@@H](C)CO)C[C@H]2C)cc1,inactive
4,C[C@@H]1CN([C@H](C)CO)C(=O)c2cccc(NC(=O)C3CCOCC3)c2O[C@@H]1CN(C)Cc1ccc2c(c1)OCO2,inactive
5,COc1cccc(-c2ccc3c(c2)O[C@H](CN(C)C(=O)C2CCC2)[C@H](C)CN([C@@H](C)CO)S3(=O)=O)c1,inactive
6,C[C@H]1CN([C@@H](C)CO)C(=O)c2cc(NC(=O)Cn3cnnn3)ccc2O[C@@H]1CN(C)Cc1ccncc1,inactive
7,CCCCCCCCCCCCCCCCOc1nc2ccc(C)cc2c(=O)o1,inactive
8,COc1ccc(CC(N)C(=O)NC2C(CO)OC(n3cnc4c(N(C)C)ncnc43)C2O)cc1.Cl.Cl (stereo not given),active
9,CN(C)C(=O)C[C@H]1CC[C@H]2[C@@H](COC[C@@H](O)CN2S(=O)(=O)c2ccccc2)O1,inactive
10,C[C@@H]1CN([C@H](C)CO)C(=O)Cc2cc(NS(=O)(=O)c3ccc(Cl)cc3)ccc2O[C@@H]1CN(C)Cc1ccc(Oc2ccccc2)cc1,active
11,C[C@H](CO)N1C[C@H](C)[C@H](CN(C)Cc2ccc(Oc3ccccc3)cc2)Oc2ccc(NC(=O)Cc3cn(C)c4ccccc34)cc2C1=O,active
12,C[C@@H]1CN([C@H](C)CO)C(=O)c2cc(NC(=O)c3ccncc3)ccc2O[C@@H](C)CCCCO[C@H]1CN(C)C(=O)Nc1ccc2c(c1)OCO2,inactive
13,COc1ccc(NC(=O)N(C)C[C@@H]2Oc3c(NC(=O)CCCCCC(=O)Nc4ccccc4N)cccc3C(=O)N([C@@H](C)CO)C[C@H]2C)cc1,inactive
14,C[C@@H]1CCCCO[C@@H](CN(C)Cc2ccccc2)[C@@H](C)CN([C@H](C)CO)C(=O)c2cc(NC(=O)Nc3ccc(F)cc3)ccc2O1,inactive
15,O=C1C=C(O)C(=O)c2ccccc21,inactive
16,O=C(C[C@H]1C=C[C@H](NS(=O)(=O)c2ccc(F)cc2)[C@@H](CO)O1)NCc1ccc(Cl)c(Cl)c1,inactive
17,COc1ccc(NC(=O)N(C)C[C@@H]2Oc3ccc(NC(=O)Cn4cnnn4)cc3CC(=O)N([C@@H](C)CO)C[C@H]2C)cc1,inactive
18,CN1CCN(C(=O)C[C@H]2CC[C@H](NC(=O)c3ccc4c(c3)OCO4)[C@H](CO)O2)CC1,inactive
19,CCCCOC(=O)CCCCCCC(=O)OCCCC,inactive
20,COc1ccc([Si](C)(C)[C@@H]2[C@@H](CC(=O)N(CCO)Cc3ccccc3)O[C@]3(C(=O)N(Cc4cccc(N5CCOC5=O)c4)c4ccccc43)[C@H]2C)cc1,inactive

row,Structure (SMILES),cytotoxicity call
1,C/C=N/N(C)C=O,inactive
2,Cn1c(=O)c2c(nc(Cl)n2CCN2C(=O)CNC2=O)n(C)c1=O,inactive
3,CO[C@H]1CN(C)C(=O)c2ccc(NS(C)(=O)=O)cc2OC[C@H](C)N(C(=O)CN(C)C)C[C@@H]1C,inactive
4,C=CCOC(=O)[C@H]1[C@@H]2C(=O)O[C@@H](c3ccccc3)[C@@H](c3ccccc3)N2[C@@H](c2ccc(OCCOC(=O)[C@H]3C[C@H]4C(=O)N[C@@H](CC(C)C)C(=O)N4[C@H]3c3ccc(O)cc3)cc2)[C@]12C(=O)Nc1ccccc12,inactive
5,COc1ccc(S(=O)(=O)Nc2ccc3c(c2)C(=O)N([C@@H](C)CO)C[C@H](C)[C@@H](CN(C)Cc2ccc(Cl)c(Cl)c2)OCCCC[C@@H](C)O3)cc1,active
6,C[C@@H]1CN([C@@H](C)CO)C(=O)Cc2cc(NC(=O)Nc3ccc(C(F)(F)F)cc3)ccc2O[C@@H]1CN(C)C(=O)Nc1ccc(C(F)(F)F)cc1,active
7,C[C@@H](CCO)Nc1nc2c([nH]1)c(=O)n(C)c(=O)n2C,inactive
8,C[C@H](CO)N1C[C@H](C)[C@H](CN(C)S(=O)(=O)c2ccc(F)cc2)OCCCC[C@H](C)Oc2ccc(NC(=O)Nc3cccc4ccccc34)cc2C1=O,inactive
9,C[C@H](CO)N1C[C@H](C)[C@@H](CN(C)Cc2ccncc2)Oc2ccc(NC(=O)c3ccncc3)cc2C1=O,inactive
10,Cc1noc(C)c1NC(=O)Nc1ccc2c(c1)C(=O)N([C@@H](C)CO)C[C@H](C)[C@@H](CN(C)C(=O)Nc1ccc(F)cc1)OCCCC[C@@H](C)O2,inactive
11,CCC[C@H]1CCCCCCCCCC(=O)O[C@@H]2[C@@H](O1)O[C@H](C)[C@H](O)[C@@H]2O[C@H]1O[C@@H](CO)[C@@H](O[C@@H]2O[C@@H](C)[C@H](O)[C@@H](O)[C@H]2OC(=O)[C@@H](C)CC)[C@@H](O)[C@@H]1O,inactive
12,CCOC(=O)Cn1c(=O)c2c(OC)ccnc2n(C)c1=O,inactive
13,C=C(C)C1CC=C(C(=O)O)CC1 (stereo not given),inactive
14,O=C(O)CNC(=O)C(=O)O,active
15,O=C1OCC=C[C@H]2O[C@@]34C=CCN(c5ccc(Cl)cc5)C(=O)[C@H]3N(CCCCCCO)C(=O)[C@@H]4[C@@H]12,inactive
16,C[C@H](CO)N1C[C@H](C)[C@@H](CN(C)C(=O)CCCN(C)C)OCCCC[C@H](C)Oc2ccc(NC(=O)Nc3cccc4ccccc34)cc2C1=O,inactive
17,C[C@H](CO)N1C[C@H](C)[C@@H](CN(C)Cc2ccc(Oc3ccccc3)cc2)Oc2ccc(NC(=O)Cc3ccccc3)cc2C1=O,inactive
18,C[C@H](CO)N1C[C@H](C)[C@H](CN(C)S(=O)(=O)c2cccs2)Oc2ccc(NS(=O)(=O)c3cccs3)cc2C1=O,inactive
19,Cn1cnc(S(=O)(=O)N2C[C@H](O)COC[C@@H]3O[C@H](CC(=O)NCc4cc(F)cc(F)c4)CC[C@H]32)c1,inactive
20,COc1ccc(CN(C)C[C@H]2Oc3c(NC(=O)c4cnccn4)cccc3C(=O)N([C@H](C)CO)C[C@@H]2C)cc1,inactive
